The campaign covered roughly 48,000 compounds. About 120 (0.25%) were called active. Another 4% or so got no clear call; they are omitted. Calls follow the shape of the dose curve; as a rule, active = well fitted activation curve with a large enough effect; inconclusive = small, poorly fitted or top-dose-only effect, or another doubt; inactive = no such curve, though single readings can be large or run the other way. The list shows a part of the results.
assay: Primary qHTS for Identification of Small Molecule Activators of Huntingtin-Antisense Promoter Activity; conditions: HEK293 HTT-AS promoter firefly luciferase reporter, 24 h; series mostly up to 57.5 µM; activity change, positive = activation: at the top concentration; also: nearly all actives have a fitted effect of over 55% in size
How it was run: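 Firefly luciferase readout (Dual-Glo, 10 min RT) after 24 h, 37 °C compound exposure (final up to 57.5 uM) of HEK293 reporter cells cultured 24 h beforehand; PTC124 at 50 uM final as control inhibitor; activity scaled vehicle 0%, zero RLU -100%.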

Activity change, positive = activation, inactive:
CSc1ccc(Nc2nn(-c3ccc(OC(F)(F)F)cc3)nc2C(C)=O)cc1 -6.21%
Cn1c(=O)n(C)c2cc(CNCc3ccc(C(=O)O)cc3)ccc21 -0.659%
C[C@H](NC(=O)Cc1cc(F)cc(F)c1)C(=O)N[C@@H]1C(=O)N(C)c2ccccc2-c2ccccc21 -16%
CCOCCn1ccc2c(OCC(=O)Nc3cc(C(F)(F)F)ccc3Cl)cccc2c1=O -6.84%
Cc1ccc2c(c1)N(CC(=O)NCc1cccc(Cl)c1)C(=O)c1cccnc1O2 -5.97%
COc1ccccc1Cn1c(CNS(=O)(=O)c2c(C)cc(C)cc2C)nc2cccnc21 -27%
Cc1ccc(C)c(NC(=O)c2cc(S(=O)(=O)N3CCc4ccccc4C3)ccc2F)c1 8.51%
COc1ccccc1CNC(=O)c1cc2sccc2n1Cc1ccc(F)cc1 -12.1%
COc1ccc(Br)cc1CNC(=O)CCCn1c(=O)c2cccn2c2cccnc21 -16.6%
CCCS(=O)(=O)c1c(S(=O)(=O)CCC)c2cc(C(C)(C)C)ccn2c1C(=O)c1ccc(OC)c(OC)c1 -21.4%
COc1ccc(C2C=C(c3ccc(C)cc3)Nc3c(C(=O)Nc4ccccc4)cnn32)cc1 (stereo not drawn) -91.3%
COc1ccc(-c2noc(-c3ccccc3OCC(=O)Nc3ccc(C(C)=O)cc3)n2)cc1 8.54%
O=C(Cn1ncc2c3ccccc3n(Cc3ccccc3)c2c1=O)N1CCCCCC1 -0.365%
CN=C(NC#N)NCCSCc1nc[nH]c1C -7.89%
CCc1cccc(NC(=O)Cn2c(C(=O)OC)cc3occc32)c1 9.39%
COc1ccccc1NC(=O)Cn1c(=O)n(-c2ccccc2Cl)c(=O)c2sc3ccccc3c21 -19.6%
COCCCn1c(SCc2ccccc2F)nc2c(sc3ccccc32)c1=O -20.9%
COC(=O)c1cc2sccc2n1Cc1ccc(F)cc1 -18.8%
CCCCC(=O)Nc1nnc(S(=O)(=O)N2CCCCCC2)s1 -5.74%
CCN(c1cccc(C)c1)C(CNS(=O)(=O)c1ccccc1)c1ccccc1 (stereo not drawn) -32.4%
CCOc1ccc(NC(=O)c2cccc(N3CCCS3(=O)=O)c2)cc1 13%
Cc1ccc(C)c(N2CCN(C(=O)CN3C(=O)COc4ccc(S(=O)(=O)N5CCOCC5)cc43)CC2)c1 -12%
CCC(=O)N1c2ccccc2CC1C(=O)NCCCN1CCN(c2ccccc2)CC1 (stereo not drawn) -4.16%
O=C(Nc1ccc(F)c(Cl)c1)C1CCCN(c2ncnc3onc(-c4ccc(F)cc4)c23)C1 (stereo not drawn) -23.5%
COc1ccccc1Cc1nc2ccccc2nc1SCC(=O)NCc1ccc(F)cc1 2%
COc1ccccc1Nc1nc2c(S(=O)(=O)c3ccc(C(C)C)cc3)nnn2c2ccsc12 -3.14%
Cc1cccc(N2CCN(c3ncnc4onc(-c5ccc(F)cc5)c34)CC2C)c1 (stereo not drawn) -35.3%
Cc1ccc2c(=O)cc(C(=O)Nc3ccc(S(=O)(=O)N4CCCCC4)cc3)oc2c1C -25.5%
Cc1cc(C)c2oc(-c3ccc(NC(=O)c4cc(Br)ccc4Cl)cc3)nc2c1 -20.7%
Cc1ccc(NC(=O)CCc2nc3cccnc3n2-c2ccccc2)cc1 -14.1%
Cc1coc2cc3oc(=O)c(CC(=O)NCCc4ccccc4F)c(C)c3cc12 -0.146%
O=C(Cn1c(=O)n(Cc2ccc(C(=O)NCc3ccccc3Cl)cc2)c(=O)c2ccccc21)Nc1ccc(F)cc1 -13.6%
Cc1c(-c2ccccc2)n(-c2ccc(Cl)cc2)c2nc3c(c(=O)n(C)c(=O)n3C)n12 1.57%
CSc1cccc(Nc2ncc3cc(-c4c(Cl)cccc4Cl)c(=O)n(C)c3n2)c1 -0.0428%
Cc1ccc(CNc2ccc(-c3nc(-c4cccnc4)no3)cc2[N+](=O)[O-])cc1 -7.34%
CCN(CC)S(=O)(=O)c1ccc2c(c1)N(CC(=O)Nc1ccc(F)cc1F)C(=O)C1CCCN21 (stereo not drawn) -9.18%
COc1ccc(CNC(=O)CCCCCn2c(=O)[nH]c3ccccc3c2=O)cc1 6.37%
CCOC(=O)c1[nH]c2ccccc2c1NC(=O)c1ccc(OC)c(OC)c1 -2.7%
COc1cc(NC(=O)Cn2c(C)cc(C)c(C#N)c2=O)cc(OC)c1 -6.87%
CCn1cc(C(=O)NCCc2ccc(Cl)cc2)c(=O)c2cc(S(=O)(=O)N3CCOCC3)ccc21 -13%
Oc1cccc(-c2nc3ncccn3c2Nc2cccc(C(F)(F)F)c2)c1 -34.8%
NCCO 13.6% [at 116 µM, percent change from vehicle, -100% = no light]
CC(=O)N1CCCc2cc(S(=O)(=O)N(C)CC(=O)Nc3ccc(C(C)C)cc3)ccc21 -1.37%
OC1(c2ccc(Cl)cc2)CCNCC1 0.27%
CC(C)c1ccc(OCC(=O)Nc2ccc(S(=O)(=O)Nc3ncccn3)cc2)cc1 8.36%
Cn1cc(-c2cc3n(n2)CCC(=O)N3CCCC(=O)Nc2ccc(Cl)cc2)c2ccccc21 -16.2%
CC(C)OC(=O)c1c(NC(=O)c2cccc(C(F)(F)F)c2)sc2c1CCCC2 -6.74%
O=C1CC(c2ccccc2)Sc2ccccc2N1Cc1ccccc1F (stereo not drawn) -19.7%
COc1ccc(NC(=O)Cn2ccn(-c3ccc(F)c(F)c3)c(=O)c2=O)cc1Cl -4.64%
CN(C)CCCSc1ccccc1NC(=O)/C=C/c1ccccc1 -7.14%
COc1cccc(CNC(=O)c2sc3nc[nH]c(=O)c3c2C)c1 -12.5%
COc1ccc(CNC(=O)CCC2N=C3c4ccccc4N=C(SCC(=O)NCCc4ccc(OC)c(OC)c4)N3C2=O)cc1 (stereo not drawn) -5.55%
Cc1cccc(CNC(=O)c2cnc3c(-c4cccc(C)c4)c(C)nn3c2C)c1 -4.1%
CCCCC(=O)N1c2ccccc2C(C)(c2ccccc2)CC1(C)C (stereo not drawn) -10.8%
COc1ccc(OC)c(CCNc2ncnc3onc(-c4ccc(Cl)cc4)c23)c1 -23.3%
CCc1ccc(S(=O)(=O)NCCc2cn3ccsc3n2)cc1 -15.7%
CC(=O)N1CCCc2cc(S(=O)(=O)N(C)CC(=O)Nc3cccc(Cl)c3C)ccc21 -23.5%
Cn1c(=O)c2cc(S(=O)(=O)NC(Cc3ccccc3)C(=O)Nc3ccc(F)cc3)ccc2n(C)c1=O (stereo not drawn) -6.67%
CCOc1cc2ncc(C#N)c(Nc3ccc(F)c(Cl)c3)c2cc1NC(=O)C=CCN(C)C -29.7%
O=C(c1ccccc1Cl)n1nc(-c2ccco2)nc1NCc1cccs1 29.7%
Cc1nc2cnc3ccc(C#Cc4cccnc4)cc3c2n1-c1ccc(C(C)(C)C#N)cc1 -43.8%
CCN(CC)c1ccc(NC(=O)COCc2cc(-c3ccc4c(c3)OCO4)on2)c(C)c1 -8.52%
Cc1ccccc1Cn1c2ccccc2c2cnn(CC(=O)NCc3cccc(Cl)c3)c(=O)c21 -27%
CCOC(=O)c1ccc(CN(Cc2ccc(F)cc2)S(=O)(=O)c2ccc(F)c(C(=O)Nc3cc(Cl)ccc3OC)c2)cc1 -16%
Cc1ccc(N2CCN(C(=O)c3c(C)oc4ncn(C)c(=O)c34)CC2)c(C)c1 -4.24%
Cc1ccc(NC(=O)CSc2nc3c(oc4ccccc43)c(=O)n2Cc2ccco2)cc1F -3.54%
Cc1nc(-n2nc(C)c(Cc3ccc(Cl)cc3)c2C)sc1C(=O)N1CCC(C)CC1 -13.3%
COc1cccc(C(=O)Nc2nc(-c3nnn(-c4ccccc4C(F)(F)F)c3C)ns2)c1 -25.8%
COc1cccc(-c2nc(Cn3c(=O)cc(C)c4c(C)nn(-c5ccccc5)c43)c(C)o2)c1OC -5.5%
COc1ccc(-c2nc3ccccc3n2Cc2ccccc2)cc1 0.535%
CCCCCOc1ccc(NC(=O)Cn2c(-c3nonc3N)nc3ccccc32)cc1 -20.1%
Cc1c(Cl)ccc2sc(N3CCN(C(=O)CCS(=O)(=O)c4ccc(F)cc4)CC3)nc12 -48.6%
CC1=C(C(=O)Nc2ccccc2)C(c2ccccn2)n2nc(SCc3ccccc3)nc2N1 (stereo not drawn) -21.2%
Cc1ccc(-n2nc(C)c3c(C(=O)Nc4ccccc4C(F)(F)F)cc(C)nc32)cc1 -21.3%
Cc1ccc2c(c1)C(c1ccccc1)N(C(=O)COc1ccc(Cl)cc1Cl)CC(=O)N2 (stereo not drawn) -25.1%
CCCCN1C(=O)C(O)(CC(=O)c2ccc(CC)cc2)c2cc(Br)ccc21 (stereo not drawn) -26.4%
CCCN(C(=O)c1cc2c(=O)oc3ccc(C)cc3c2s1)c1ccc(OCC)cc1 -8.98%
COc1cccc(CNC(=O)Cn2nc(C)n3c(cc4cc(C)ccc43)c2=O)c1OC -0.209%
CCSc1nc(-c2cccc(Cl)c2)nc2c1Cc1c(CO)cnc(C)c1O2 -7.8%
CN[C@H]1[C@@H](O[C@@H]2[C@H](O[C@@H]3[C@@H](O)[C@@H](O)[C@@H](N=C(N)N)[C@@H](O)[C@@H]3N=C(N)N)O[C@H](C)[C@@]2(O)C=O)O[C@@H](CO)[C@@H](O)[C@H]1O 0.657% [at 19.1 µM, percent change from vehicle, -100% = no light]
COc1ccccc1CNC(=O)C(=O)NCC(c1ccco1)S(=O)(=O)c1ccc(F)cc1 (stereo not drawn) -13.3%
COc1ccc(C)c2sc(NC(=O)c3ccc(S(=O)(=O)N4CCOCC4)cc3)nc12 -7.34%
COc1cccc(N2CCN(C(=O)c3cnc4c(-c5ccc(F)cc5)c(C)nn4c3C)CC2)c1 -14.6%
COc1ccc(C(=O)Oc2c(Sc3ccccc3)c(C)nn2-c2ccccc2)c(OC)c1 -76.6%
COc1ccc(C2Nc3ccccc3-c3cc(C)nn32)c(OC)c1 (stereo not drawn) 0.956%
Cc1cccc(C)c1OCCn1c(CCNC(=O)C2CCCCC2)nc2ccccc21 -27.6%
COC(=O)c1ccccc1NS(=O)(=O)c1cc2c3c(c1)CC(=O)N3CCC2 -7.05%
CCN(CC)S(=O)(=O)c1ccc2c(c1)N(CC(=O)Nc1ccc(Cl)cc1)C(=O)C1CCCN21 (stereo not drawn) -14.1%
CC1=C(C(=O)Nc2cc3cn[nH]c3cc2F)C(c2ccc(Cl)cc2F)N=C(c2ccnc(Cl)c2)N1 (stereo not drawn) -23.4%
CC(C)(C)c1ccc(C(=O)NCC(c2ccco2)S(=O)(=O)c2ccccc2)cc1 (stereo not drawn) -22%
O=C(CSc1nc2c([nH]c3ccccc32)c(=O)n1-c1ccccc1)Nc1cccc(C(F)(F)F)c1 -34.1%
Cc1ccc(N(C)C(=O)Cn2ncc3c([nH]c4ccccc43)c2=O)cc1C -16.5%
O=C(NC1CCCCC1)c1ccc(CSc2nc3ccncc3n2Cc2cccc(F)c2)cc1 -18.6%

— PubChem BioAssay AID1508624 (National Center for Advancing Translational Sciences (NCATS), 2021)
